Data as given in the supplement of paper PMC10338343.
± gives the standard deviation. The entries are a selection whose mix differs from that of the whole data set.

Test system: MIWI (PIWIL1) piRISC loaded with L1MC piRNA (30 nt)
Test: pre-steady-state target cleavage rate (min^-1); MIWI and MILI are mouse PIWI proteins and EfPiwi is from a freshwater sponge; tags in brackets are library labels; higher = faster piRNA-guided slicing of the target
Details: guide: L1MC piRNA 5'p-UAACUAAAUACUAUGCAAGCUGUAGGUCCU; auxiliary factor: 500 nM mouse GTSF1
Summary of the method: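 The pre-steady-state cleavage rate came from a burst-and-steady-state fit to pooled data from three Cleave-'n-Seq trials, in which uncleaved targets were sequenced and normalised to depth and to weakly complementary targets. Each reaction held 0.1 nM transcribed, DNA-blocked target RNA library and 1 nM active affinity-purified piRISC carrying one synthetic guide, with or without 500 nM GTSF1 partner protein, in HEPES–potassium acetate buffer at 33 °C for 0–8 or 0–960 min. k3 was capped at 0.0001 min^-1.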

Compared with UCCUGCUACUCCUUGCAUAGUAUUUACAAA, UGGACCUACAGCUUGCAUAGUAUAAUCAAA is higher in “pre-steady-state target cleavage rate” value: 0.122 ± 0.02 for the first, 0.205 ± 0.039 for the second.

Going from UCCACCUACAGCUUGCAAUCUAUUUAGAAA to UCCUGGUACAGCUUGCUAUGUAUUUAGUAA, the “pre-steady-state target cleavage rate” value falls from 0.0562 ± 0.019 to 0.0244 ± 0.0086.

First: UCCUGGAUGAGGUUGCAUAGUUUUUAGUUA
Second: UCCUGGAUCAGCUUCCAUAGUAUUUAGUUA
The “pre-steady-state target cleavage rate” value of the first is lower: 0.012 ± 0.0054 for the first, 0.0302 ± 0.0062 for the second.

First: UCCUGCUACAGCUUGCAUUCUAUUUAGUAA
Second: UCCUGGAUGAGCUUGCAUAUAUUUAGUUA
The “pre-steady-state target cleavage rate” value of the first is higher: 0.0405 ± 0.011 for the first, 0.00814 ± 0.0039 for the second.

First: UCCUGCUACAGCUUCCAUAGUAUUUUGUUA
Second: UCCUGGUACUCGUUGCAUAGUAUUUAGUUA
The “pre-steady-state target cleavage rate” value of the first is lower: 0.0104 ± 0.0052 for the first, 0.0743 ± 0.031 for the second.

UCCUCCAUCAGCUUGCAUAGUAUUUUCAAA and UCCUCGAACAGCUUGCAUAGUAUUUUCAAA are within error of each other in “pre-steady-state target cleavage rate” value: 0.239 ± 0.034 for the first, 0.308 ± 0.04 for the second.

First: AGGACCUACAGCAUGCAUAGUAUUUUCAAA
Second: UCCUGGAUGUCCUUGCAUAGUUUUUUGUUA
The “pre-steady-state target cleavage rate” value of the first is higher: 0.436 ± 0.062 for the first, 0.00506 ± 0.004 for the second.

Compared with UCGACCUACAGCUUGCAUUCUAUUUUCAAA, UCCUGCUACAGCUUGUCAUAGUAUUUAGUUA is higher in “pre-steady-state target cleavage rate” value: 0.0716 ± 0.024 for the first, 0.258 ± 0.029 for the second.

Going from UCCACCUACAGCUUGCAUAGUAAAAUCAAA to UCCUGGAUGUGCUACCAUAGUAUUUAGUUA, the “pre-steady-state target cleavage rate” value falls from 0.222 ± 0.068 to 0.00465 ± 0.0032.

UGGACCUAGUCCUUGCAUAGUAUUUACAAA and UCCACCUACAGCUUGCUAAGUAUUUAGAAA are within error of each other in “pre-steady-state target cleavage rate” value: 0.0221 ± 0.0084 for the first, 0.0236 ± 0.0081 for the second.

Going from UCGACCUACAGCUUCCAUAGAAUUUAGUUA to UCCUGCUACAGCUUGCAUAGUAUUAACAAA, the “pre-steady-state target cleavage rate” value rises from 0.0287 ± 0.012 to 0.218 ± 0.035.

First: UCCUGGUACACCUUGCAUAGUAUUUAGAAA
Second: UCCUGGAUGUCGAACGAAUAGUAUUUAGUUA
The “pre-steady-state target cleavage rate” value of the first is higher: 0.25 ± 0.082 for the first, less than 0.0001 for the second.

UCCUGGAACUGCUUCCAUAGUAUUUAGUUA and UCCUGGAUCAGCUUGCAUUCUAUUUAGUAA are within error of each other in “pre-steady-state target cleavage rate” value: 0.035 ± 0.008 for the first, 0.0206 ± 0.0076 for the second.

First: UCCACCUACAGCUUGCAUAGUAUAAAGAAA
Second: UCCUGGAUGUCGUUGCAUAUUAUUUAGUUA
The “pre-steady-state target cleavage rate” value of the first is higher: 0.305 ± 0.066 for the first, 0.00752 ± 0.0039 for the second.

First: UCCACCUACAGCUUGCUAUAGUAUUUAGUUA
Second: UCGACCUACAGCUUGCAUAGUAAAUACAAA
The “pre-steady-state target cleavage rate” value of the first is lower: 0.0517 ± 0.016 for the first, 0.177 ± 0.045 for the second.

First: UGGACCUACAGCUUGGUAAGUAUUUAGUUA
Second: UCCUGGAUGUGCUAGCUUAGUAUUUAGUUA
The “pre-steady-state target cleavage rate” value of the first is higher: 0.0396 ± 0.0067 for the first, 0.00713 ± 0.0026 for the second.

Compared with UCCUGGUACAGCUUGCAUAGUAAAUACAAA, UCCUGGAUGUCGUAUGCAUAGUAUUUAGUUA is lower in “pre-steady-state target cleavage rate” value: 0.0664 ± 0.023 for the first, 0.011 ± 0.0041 for the second.

UCCUGGUACAGCUUGCAUACUAUUUAGAAA and UCCUGGUACACGUUGCAUAGUAUUUACAAA are within error of each other in “pre-steady-state target cleavage rate” value: 0.0759 ± 0.024 for the first, 0.0642 ± 0.034 for the second.

UCCACCUAGUCCUUGCAUAGUAUUUAGAAA was tested, and the “pre-steady-state target cleavage rate” value was 0.109 ± 0.027.
